In test [1] the test system is RAW-Dual. Description: IRF Lucia reporter activity, fold change vs agonist alone; cytotoxicity flag (confluency mask): not cytotoxic; higher = enhanced IRF activity. The procedure, abridged: (§1)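 Cytotoxic wells were those whose IncuCyte confluency was below 70% of agonist controls in both mask sets. The cells were RAW-Dual macrophages at 50,000 cells/well in DMEM on 384-well plates, dosed with 50 nL of library stock by pin tool, stimulated with a PRR agonist 1 h later, and kept at 37 °C, 5% CO2 for 20 hours. IRF and NF-κB reporter activity, as fold change over agonist-alone wells, came from supernatant read by QuantiLuc luminescence and QuantiBlue absorbance, respectively.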

For test [2], the system named is RAW-Dual. The test is described as follows: IRF Lucia reporter activity, fold change vs agonist alone; higher = enhanced IRF activity. To be noted: library stock concentration (final ~1000-fold dilution): 10 mM, agonist: MPLA (TLR4) […]. An outline of the steps: as §1
For test [3], the system named is RAW-Dual. Description: IRF Lucia reporter activity, fold change vs agonist alone; cytotoxicity flag (confluency mask): cytotoxic (confluency <70% of control); higher = enhanced IRF activity. The procedure, abridged: as §1
[4] abbreviates: agonist: 3'3'-cGAMP (STING) 10 ug/mL.
[5] abbreviates: cytotoxicity flag (confluency mask): not cytotoxic.
The mark [6] stands for this setting: cytotoxicity flag (confluency mask): cytotoxic (confluency <70% of control).

Molecules are shown by their SMILES. Values joined by “and” are separate entries in the source; they are usually repeats but may differ in a detail not shown here. Equal entries are not always repeated. The full ranking holds about 2,900 compounds; the median of “IRF Lucia reporter activity, fold change vs agonist alone” is about 0.9, and the highest 2% start at about 2.8. Some of the results follow.

As for `FC(F)(F)Oc1ccc(-c2ccc3nnc(C(F)(F)F)n3c2)cc1` (library stock concentration (final ~1000-fold dilution): 10 mM), the “IRF Lucia reporter activity” value in test [1] (setting [4]) was determined as 0.973; in test [1] (agonist: LPS (TLR4) 0.1 ug/mL), 0.723. For the compound `FC(F)(F)Oc1ccc(-c2ccc3nnc(C(F)(F)F)n3c2)cc1`, the “IRF Lucia reporter activity” value in test [2] (setting [5]) was 1.07. As for `CC1CCN(C(=O)CC#N)CC1N(C)c1ncnc2[nH]ccc12` (centres undefined) (library stock concentration (final ~1000-fold dilution): 10 mM), the “IRF Lucia reporter activity” value came to 0.238 in test [1] (setting [4]) and 0.409 in test [1] (agonist: LPS (TLR4) 0.1 ug/mL).

In the case of `CC1CCN(C(=O)CC#N)CC1N(C)c1ncnc2[nH]ccc12` (centres undefined), the “IRF Lucia reporter activity” value in test [2] (setting [5]) was determined as 0.532. In the case of `O=C(O)CCCC[C@@H]1CCSS1` (library stock concentration (final ~1000-fold dilution): 10 mM), the “IRF Lucia reporter activity” value in test [1] (setting [4]) is 0.945; in test [1] (agonist: LPS (TLR4) 0.1 ug/mL) it was 1.12. The corresponding values for `CC1C(=O)OC2CC34C5CC(C(C)(C)C)C36C(OC(=O)C6O)OC4(C(=O)O5)C21O` (centres undefined) (library stock concentration (final ~1000-fold dilution): 10 mM) are 1.02 and 0.964. With `CC1C(=O)OC2CC34C5CC(C(C)(C)C)C36C(OC(=O)C6O)OC4(C(=O)O5)C21O` (centres undefined), the “IRF Lucia reporter activity” value in test [2] (setting [5]) was 0.876. As for `COc1ccc2c(c1)c(CC(=O)OCC(=O)O)c(C)n2C(=O)c1ccc(Cl)cc1` (library stock concentration (final ~1000-fold dilution): 10 mM), the “IRF Lucia reporter activity” value came to 1.05 in test [1] (setting [4]) and 0.987 in test [1] (agonist: LPS (TLR4) 0.1 ug/mL). For `COc1ccc2c(c1)c(CC(=O)OCC(=O)O)c(C)n2C(=O)c1ccc(Cl)cc1`, the “IRF Lucia reporter activity” value in test [2] (setting [5]) came to 0.986. For the compound `Cc1[nH]nc(C(F)(F)F)c1Cc1sc2c(c1C(=O)N1CC(C)(O)CO1)c(=O)n(C)c(=O)n2C(C)C` (centres undefined) (library stock concentration (final ~1000-fold dilution): 10 mM), the “IRF Lucia reporter activity” value in test [1] (setting [4]) is 0.955; in test [1] (agonist: LPS (TLR4) 0.1 ug/mL), 0.637. As to `Cc1[nH]nc(C(F)(F)F)c1Cc1sc2c(c1C(=O)N1CC(C)(O)CO1)c(=O)n(C)c(=O)n2C(C)C` (centres undefined), the “IRF Lucia reporter activity” value in test [2] (setting [5]) is 0.755. For `CCCNC(C)C(=O)Nc1ccccc1C.Cl` (centres undefined) (library stock concentration (final ~1000-fold dilution): 10 mM), the “IRF Lucia reporter activity” value in test [1] (setting [4]) was 1.05; in test [1] (agonist: LPS (TLR4) 0.1 ug/mL), 1.43.

For `CCCNC(C)C(=O)Nc1ccccc1C.Cl` (centres undefined), the “IRF Lucia reporter activity” value in test [2] (setting [5]) is 1.01. Take `NC(=O)C(CCC(F)(F)F)N(Cc1ccc(-c2ncon2)cc1F)S(=O)(=O)c1ccc(Cl)cc1` (centres undefined) (library stock concentration (final ~1000-fold dilution): 10 mM): the “IRF Lucia reporter activity” value in test [1] (setting [4]) stood at 0.94; in test [1] (agonist: LPS (TLR4) 0.1 ug/mL), 1.56. As for `NC(=O)C(CCC(F)(F)F)N(Cc1ccc(-c2ncon2)cc1F)S(=O)(=O)c1ccc(Cl)cc1` (centres undefined), the “IRF Lucia reporter activity” value in test [2] (setting [5]) worked out at 1.3.

On to `C=C1CCC(O)C/C1=C/C=C1\CCCC2(C)C1CCC2C(C)/C=C/C(C)C(C)C` (centres undefined) (library stock concentration (final ~1000-fold dilution): 10 mM), for which the “IRF Lucia reporter activity” value in test [1] (setting [4]) is 0.434; in test [1] (agonist: LPS (TLR4) 0.1 ug/mL), 1.25. Consider `C=C1CCC(O)C/C1=C/C=C1\CCCC2(C)C1CCC2C(C)/C=C/C(C)C(C)C` (centres undefined), for which, in test [2] (setting [5]), the “IRF Lucia reporter activity” value was 1.09. As for `Cn1sc(=O)n(Cc2ccccc2)c1=O` (library stock concentration (final ~1000-fold dilution): 10 mM), the “IRF Lucia reporter activity” value in test [3] (setting [4]) was 0.328; in test [3] (agonist: LPS (TLR4) 0.1 ug/mL), 0.137. For the compound `Cn1sc(=O)n(Cc2ccccc2)c1=O`, the “IRF Lucia reporter activity” value in test [2] (setting [6]) is 0.292. Consider `CC(Nc1ncnc2[nH]cnc12)c1cc2ccc(F)cc2nc1-c1ccccn1` (centres undefined) (library stock concentration (final ~1000-fold dilution): 10 mM), for which the “IRF Lucia reporter activity” value in test [1] (setting [4]) amounted to 0.716; in test [1] (agonist: LPS (TLR4) 0.1 ug/mL), 0.768. For `CC(C)(CO)n1cc(C(=O)c2cncc(NC(=O)Cc3ccc(Cl)cn3)c2)c2cnc(N)nc21` (library stock concentration (final ~1000-fold dilution): 10 mM), in that order: 0.552 and 1.09. On to `CC(C)Cn1c(=O)n(C)c(=O)c2nc[nH]c21` (library stock concentration (final ~1000-fold dilution): 10 mM), for which the results for the “IRF Lucia reporter activity” value in test [1] (setting [4]) and in test [1] (agonist: LPS (TLR4) 0.1 ug/mL) were 0.896 and 0.997, respectively.

For `CC(C)Cn1c(=O)n(C)c(=O)c2nc[nH]c21`, the “IRF Lucia reporter activity” value in test [2] (setting [5]) stood at 1.02. On to `COc1ccc2cc3[n+](cc2c1OC)CCc1cc2c(cc1-3)OCO2` (library stock concentration (final ~1000-fold dilution): 10 mM), for which the “IRF Lucia reporter activity” value is 1.05 and 1.21 in test [1] (setting [4]); 1.07 and 1.14 in test [1] (agonist: LPS (TLR4) 0.1 ug/mL). In the case of `CC1COC2Cn3cc(C(=O)NCc4ccc(F)cc4F)c(=O)c(O)c3C(=O)N12` (centres undefined) (library stock concentration (final ~1000-fold dilution): 10 mM), the “IRF Lucia reporter activity” value in test [1] (setting [4]) was found to be 0.909; in test [1] (agonist: LPS (TLR4) 0.1 ug/mL), 0.781. For `CC(C)(C)OC(=O)Nc1ccc(-c2cc(C(=O)NCCCCCCC(=O)NO)no2)cc1` (library stock concentration (final ~1000-fold dilution): 10 mM), the figures for the “IRF Lucia reporter activity” value in test [3] (setting [4]) and in test [3] (agonist: LPS (TLR4) 0.1 ug/mL) were 0.00937 and 0.711, respectively. With `CCS(=O)(=O)N1CCN(c2ccc(Nc3ncc(C(N)=O)c(NC4CC4)n3)cc2)CC1.Cl` (library stock concentration (final ~1000-fold dilution): 10 mM), the results for the “IRF Lucia reporter activity” value in test [3] (setting [4]) and in test [3] (agonist: LPS (TLR4) 0.1 ug/mL) were 0.0176 and 0.0158, respectively. In the case of `Cc1nc(C)c(C)nc1C` (library stock concentration (final ~1000-fold dilution): 10 mM), the results for the “IRF Lucia reporter activity” value in test [1] (setting [4]) and in test [1] (agonist: LPS (TLR4) 0.1 ug/mL) were 0.978 and 1.34, respectively. Turning to `Cc1nc(C)c(C)nc1C`, in test [2] (setting [5]), the “IRF Lucia reporter activity” value was determined as 0.921. Take `Cc1cc([N+](=O)[O-])c(NS(=O)(=O)c2cccc(C(=O)O)c2)cc1-c1cccnc1` (library stock concentration (final ~1000-fold dilution): 10 mM): the “IRF Lucia reporter activity” value amounted to 0.929 in test [1] (setting [4]) and 1 in test [1] (agonist: LPS (TLR4) 0.1 ug/mL). Consider `CC1(N)CCN(c2cnc(-c3cccc(Cl)c3Cl)c(N)n2)CC1.Cl` (library stock concentration (final ~1000-fold dilution): 10 mM), for which the “IRF Lucia reporter activity” value in test [1] (setting [4]) worked out at 0.835; in test [1] (agonist: LPS (TLR4) 0.1 ug/mL), 1.43.

`CC(C)(C)NCC(O)COc1cccc2c1CC(O)C(O)C2` (centres undefined) (library stock concentration (final ~1000-fold dilution): 10 mM): the “IRF Lucia reporter activity” value in test [1] (setting [4]) was 1.09; in test [1] (agonist: LPS (TLR4) 0.1 ug/mL) it was 1.2.

Consider `CC(C)(C)NCC(O)COc1cccc2c1CC(O)C(O)C2` (centres undefined), for which the “IRF Lucia reporter activity” value in test [2] (setting [5]) turned out to be 1.07.

As for `COc1cc(-c2cc(-c3ccc(N4CCNCC4)cc3)cnc2C)cc(OC)c1OC` (library stock concentration (final ~1000-fold dilution): 10 mM), the “IRF Lucia reporter activity” value in test [1] (setting [4]) was found to be 0.125; in test [1] (agonist: LPS (TLR4) 0.1 ug/mL), 0.669. Turning to `Nc1ccccc1NC(=O)c1ccc(CNc2nccc(-c3cccnc3)n2)cc1`, the “IRF Lucia reporter activity” value in test [2] (setting [6]) came out at 0.145. With `Nc1ccccc1NC(=O)c1ccc(CNc2nccc(-c3cccnc3)n2)cc1` (library stock concentration (final ~1000-fold dilution): 10 mM), the “IRF Lucia reporter activity” value in test [3] (setting [4]) is 0.0258; in test [3] (agonist: LPS (TLR4) 0.1 ug/mL) it was 0.143.
